The record followed here is the supplement of paper PMC11417369.

This is one part of the list.

The assay has as its system PfAP2-HC AP2 domain (GST-tagged). Description: gcPBM binding intensity (ln(normalized median fluorescence intensity)); higher = stronger DNA binding. The method in brief: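 The binding buffer was 1× PBS containing 1% milk, 0.2 mg/ml BSA, 0.5% salmon testes DNA and 0.03% Triton X-100. In it, GST-tagged P. falciparum DNA-binding domains expressed in E. coli were applied for 1 h to an Agilent 4 × 180k array of primer-extended double-stranded 36-bp intergenic genomic probes plus negative controls. Binding intensity, read with Alexa488 anti-GST antibody and a 488 nm scan, is the highest Masliner-normalised natural-log median intensity across replicate spots of either probe orientation.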
As to “TTAATATTAATATATTGTACATATATGCACATATTT [XGTACX_site6569]”, the “gcPBM binding intensity (ln)” value is 9.74.
As for “AATATTATAATATAAACACACAAAATTCAATTATAT [CACACA_site3789]”, the figure is 9.95; as for “AACGTTCATATTTCCACACACAAAAAATAAATATAA [CACACA_site3344]”, 10.
Regarding “AAAAATAAAGGGCGAAAAAAAAAAAAAAAAAAAAAA [GTGCAC_negctrl_site671]”, the “gcPBM binding intensity (ln)” value was determined as 8.69.
As for “CTTGTATTTAAACACACACACACTTTCTTTTTTTAA [CACACA_site5133]”, the figure is 10.5; as for “TTGATGATATAAAAAAGTACTTATATTATATTATAT [XGTACX_site6492]”, 9.55; as for “TTTCCTATTTAATATAGTACATAAGAAATAATTTTA [XGTACX_site5952]”, 9.18.
Take “ATATTTTATTATTGTTGTACTTTTTTTTGATTGTTT [XGTACX_site4090]”: the “gcPBM binding intensity (ln)” value amounted to 9.88.
For the sequence “TTGACACGTATATGCACACACCCGTAAGTGTCCATT [CACACA_site2764]”, the “gcPBM binding intensity (ln)” value came out at 10.
The same measure for “TTTTTTATGAACACGTCACACATCATTAAAATGTTT [CACACA_site5934]”: 9.67.
As for “AGTTATAAACATATGTGTACTTATAAAAACATATAG [XGTACX_site3268]”, the figure is 9.82.
Regarding “TTTAATATTTTTCAATGTAGAAAGTTTGTCTGTTAT [CACACA_negctrl_site973]”, the “gcPBM binding intensity (ln)” value came out at 9.51.
The same measure for “TCACACATATATTCATGTACATATTAATATTTCCAT [XGTACX_site5387]”: 9.85; for “AAAAAAAGTAAATGTTGTACTATAATATGTAATATA [XGTACX_site7966]”: 9.62; for “AACCACATACATATAACACACATATACAATCTATAT [CACACA_site1987]”: 10.4.
As for “TACATATATATTATATGTACTTATATTTTTATAATA [XGTACX_site3452]”, the figure is 9.61; as for “ATATACATATCCATATTTATATCTATATTTAAAACA [CACACA_negctrl_site747]”, 9.49.
As to “AAATAACACTAATGATGTACTCAACTATTTATAATT [XGTACX_site8183]”, the “gcPBM binding intensity (ln)” value turned out to be 9.66.
The same measure for “TATGAAATTTTAATTACACACAGGAAAATAAAATGG [CACACA_site4935]”: 9.74; for “TAAAAAAAATATTTTTGTACGAATTAAATTTTTTTT [XGTACX_site4838]”: 9.35; for “ACATATTTTTAATACACACTCAAAAAAGTACTTAAC [CACACA_site3014]”: 9.69.
Take “TATTTACACCTAATCACAAATAAAATAAAATCAAAT [CACACA_negctrl_site531]”: the “gcPBM binding intensity (ln)” value was determined as 9.59.
As for “ACATATAAATAAATAAATATATATATATATATATAT [GTGCAC_negctrl_site378]”, the “gcPBM binding intensity (ln)” value stood at 9.8.
The same measure for “TTTTTATAACTATATTATATAACTTTTGTACGAACT [CACACA_negctrl_site1423]”: 9.8; for “TAAATCAAAATAATTTAACACACAATTTTAATACTG [CACACA_site8744]”: 9.7.
As for “GATAAGGTATTCAAATGTACAAAATGTTTTATATAA [XGTACX_site6863]”, the “gcPBM binding intensity (ln)” value was found to be 9.59.
In the case of “TATATGATATAATATACACACATACAGATATATATA [CACACA_site4440]”, the “gcPBM binding intensity (ln)” value is 9.89.
As for “AAATTATTAAGTGATATAATATTCTATAGATGGGGA [CACACA_negctrl_site168]”, the figure is 9.66; as for “TTTTCCAATTTAAAAGCATGCATCTGTTTTTTTTTT [TGCATGCA_site482]”, 9.53; as for “TAGAGGTATAAAATATGTACTTATAAAAACATGAAT [XGTACX_site8916]”, 9.64.
The same measure for “AGAGGTAGAGAGAAAACATGCATAATGATTTTCATA [TGCATGCA_site958]”: 9.56; for ATATATATTATATAAGTGCATAATATTCTTTCTTTT: 9.61; for “TTTTTTTATCAATGTTGTACTTTTTTTTTTTTCCAT [XGTACX_site8864]”: 9.67.
On to “TATATATTTTGTGTCTGTACACATATTATTAATTCC [XGTACX_site7507]”, for which the “gcPBM binding intensity (ln)” value worked out at 9.67.
Consider “TTCAAATATAAATACACACACATAGCTACAAAATAA [CACACA_site4172]”, for which the “gcPBM binding intensity (ln)” value is 11.
The same measure for “TACACGCATGGACACACACACACACCCATATATATA [CACACA_site4522]”: 11; for “TATAAGAGAATATATACACACAAAAATATATACAGT [CACACA_site1668]”: 10.1.
The same measure for TTCTTAAAAGGAAAGGTGCAACTTTATCATTTTCTT: 9.45; for “TAAATACATAAATACACACACATATATTATATATAT [CACACA_site4310]”: 10.9.
In the case of “ATATTAACTATCATAACACACACAGTAGACATATTT [CACACA_site6941]”, the “gcPBM binding intensity (ln)” value came out at 10.3.
For “TATCATATATAAAGAGGTACGTAAGAATAGAAAATT [XGTACX_site798]”, the “gcPBM binding intensity (ln)” value came to 9.99.
In the case of “TATAATTATATGTATACACACACATACATTTACATA [CACACA_site9061]”, the “gcPBM binding intensity (ln)” value came out at 10.5.
The same measure for “AAAATGAAAATGAAAATGAAAATGGGAAAATGTCAA [TGCATGCA_negctrl_site488]”: 9.83; for “TTATATATAAGTTTATTCATTTTTTTTTTTTTTTTT [XGTACX_negctrl_site573]”: 9.23; for “TAAATAAAAAAGAATACACACAGCATGCATAAATAT [CACACA_site237]”: 10.1.
As for “CATATATATCGTAATGCACACATGTAATTTCATAAT [CACACA_site811]”, the “gcPBM binding intensity (ln)” value was found to be 9.9.
As for “TCTGTATATTATTCAAGTACACAATATAAATATAAA [XGTACX_site7241]”, the figure is 9.49; as for “AAAAAATTCAAAAGGTGTACAACATTATATTATTCC [XGTACX_site5118]”, 9.77; as for “TATTGTTTTTTTTACTGTACACAAGTAAATGAAAAA [XGTACX_site790]”, 9.45.
Turning to “GTATATAATTAAAGTTGTACCCTTAAAAAAGGGAAA [XGTACX_site7278]”, the “gcPBM binding intensity (ln)” value is 9.5.
On to “GATAACTTTTTTCTCACACACAAATATTTTAATCAT [CACACA_site7685]”, for which the “gcPBM binding intensity (ln)” value was 10.
For the sequence “GAACAAATTAAATAGGTGCATTAACATGTTCTATTT [GTGCAC_site9729]”, the “gcPBM binding intensity (ln)” value amounted to 9.83.
As for “AAAAATAAAAAAATAAATACGTATACATATATAATA [TGCATGCA_negctrl_site551]”, the “gcPBM binding intensity (ln)” value was determined as 9.85.
Consider “TAAATGTGAACAATAGAAGTAATAAGAAGAATAAAA [CACACA_negctrl_site1080]”, for which the “gcPBM binding intensity (ln)” value worked out at 9.78.
Take “TTTATTTTTTGTGGCACACAGAAGAAACAAGAACAA [CACACA_site1696]”: the “gcPBM binding intensity (ln)” value was found to be 9.73.
The same measure for “AATGAATAATTATTTTGTACATAATATTATATTTAT [XGTACX_site5350]”: 9.67.
Consider “AATAGTAATTTGAATACACACAATAATATATTTATA [CACACA_site7055]”, for which the “gcPBM binding intensity (ln)” value came out at 9.74.
As for “TAACACCAAACTAAATGTACACACATACATAAATAT [XGTACX_site2201]”, the figure is 10; as for “TCTTATATGATATTTATTTATTTATTTATTTATTCA [GTGCAC_negctrl_site686]”, 9.64; as for “GGAATAGTAATATATACACACAAATACATATATATA [CACACA_site67]”, 9.98.
In the case of “TTTATTTTTTAATGATGTACTATTTATCCAGAAAAG [XGTACX_site7750]”, the “gcPBM binding intensity (ln)” value was found to be 9.28.
As for “AAATTAAATGTAAGCACACATAAATTATACTCATAT [CACACA_site5782]”, the figure is 9.83; as for “ACTTATACAAAATGTGCATGTTATATTTACAATAAT [TGCATGCA_site108]”, 9.67.
As to “ATAAGCTCATGCAGGTGTACACAAAAAGAAAAAAAA [XGTACX_site2433]”, the “gcPBM binding intensity (ln)” value was determined as 9.79.
With “ATAATGAAAAGGAACATACACACCCCATATAAATAT [CACACA_site3442]”, the “gcPBM binding intensity (ln)” value was determined as 10.3.
As for “AAAATATATATTAACACACACACAAAAAAAAAAAAA [CACACA_site1325]”, the “gcPBM binding intensity (ln)” value turned out to be 11.2.
Regarding “GAAAATTATATGTGTTGTACACTTGCAACAACTATT [XGTACX_site3637]”, the “gcPBM binding intensity (ln)” value is 9.76.
For the sequence “TTTTATAATGTTGTAGTGCAAAATACGTATATTTAT [GTGCAC_site9826]”, the “gcPBM binding intensity (ln)” value came to 9.63.
The same measure for “AATAAATATATGTACACACACAAATATATACATATC [CACACA_site1903]”: 10.2; for “AATATATGGTTTCATTATATTAAATTCAATTTAATG [CACACA_negctrl_site675]”: 9.42.
As for “GGTGGCTAAATTACAACACACGACGGAATATTATAT [CACACA_site4114]”, the figure is 9.77; as for “ACCGTGGGAAGACACACACACACACCCACATATATA [CACACA_site333]”, 11.
In the case of “AGTATATAATAATTTACACACAAAAAAATATCAGGA [CACACA_site3517]”, the “gcPBM binding intensity (ln)” value worked out at 10.
Take “TGATTTATCTATATTTTATAAGTTATTTATTTTTTT [CACACA_negctrl_site1603]”: the “gcPBM binding intensity (ln)” value was 9.51.
Turning to “TTTTATTCATTGAGCACACAAAATAAATTATCAAAA [CACACA_site3279]”, the “gcPBM binding intensity (ln)” value was 9.44.
The same measure for “ATATAAATATTTATTAGTACACATTAGTGTAGTTTT [XGTACX_site4493]”: 9.58; for “CTATATTATTTTTCTTGTACGTAGGAAATATAGCTA [XGTACX_site6176]”: 9.35.
On to “TCTTGAAAAAGAATCAATCGGTCGACAAAAAAAAAA [CACACA_negctrl_site1099]”, for which the “gcPBM binding intensity (ln)” value was 9.82.
The same measure for “ATATTCTTGTTTAATACACACTGTAGTATTATAGAT [CACACA_site6341]”: 9.78; for “TTTTTTAATATTTATTAATTAAACTTTGTTTTTGTT [XGTACX_negctrl_site454]”: 9.64; for “AAAAAACACTTAAGGTGTACCTTTTAATATAAGTAT [XGTACX_site2397]”: 9.72.
As for “GACAAATAATAAAAGGTGCATTATACTTAACAAAAA [GTGCAC_site9624]”, the figure is 9.67; as for “AAAATGAACAAACACACACACATATATATATATATA [CACACA_site2403]”, 11.2; as for “AAAAATGTATGTATGGTGCAGTATTCATATCATTTT [GTGCAC_site9458]”, 9.73.
Consider “TTATTGTGTAAGATGATTTTCTTCGTCACTTTGAAA [CACACA_negctrl_site1814]”, for which the “gcPBM binding intensity (ln)” value amounted to 9.37.
As to “TGTGTATATAAATAATGTACATATATATTTTTTTAT [XGTACX_site7341]”, the “gcPBM binding intensity (ln)” value was 9.64.
As to “GTAAAAAAAAAAAAAAGTACATTATACATATATTTA [XGTACX_site5447]”, the “gcPBM binding intensity (ln)” value stood at 9.52.
The same measure for “AACCATAACTCATATGCACACATAAATATTACATAT [CACACA_site9273]”: 10.2.
